Laboratory results published in PubChem BioAssay AID894 (National Center for Advancing Translational Sciences (NCATS), 2007).
Among all 150,000 compounds or so, about 6,500 (4.3%) were called active. The inconclusive results got no clear call from the source; some entries with a clear call stand among them for comparison. Calls follow the shape of the dose curve; as a rule, active = well fitted inhibition curve with a large enough effect (not every such curve was filed as active); inconclusive = small, poorly fitted or top-dose-only effect, or another doubt; inactive = no such curve, though single readings can be large or run the other way. No potency is given beside an inconclusive call; the fits are too rough.

These molecules were tested against 15-hydroxyprostaglandin dehydrogenase [NAD(+)] (Homo sapiens) (UniProt P15428) (assay: qHTS Assay for Inhibitors of HPGD (15-Hydroxyprostaglandin Dehydrogenase)). Details: purified HPGD, NADH fluorescence kinetic, PGE2 substrate; activity change, negative = inhibition: hits give low values.
How it was run: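 NADH formation kinetics: reaction with 30 uM PGE2 and 1 mM NAD+ (final), 20 nM enzyme, Tris-HCl pH 8 with Tween 20, after 15 min compound preincubation at room temperature. Fluorescence change, last versus first of five reads.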
% is scaled to controls: 0 for no effect and ±100 for the full control effect; potency is read from the fitted curve at half-maximal effect; tags tell the direction and shape of the fitted curve.

UniProt P15428, sequence (P15428 whole entry, looked up): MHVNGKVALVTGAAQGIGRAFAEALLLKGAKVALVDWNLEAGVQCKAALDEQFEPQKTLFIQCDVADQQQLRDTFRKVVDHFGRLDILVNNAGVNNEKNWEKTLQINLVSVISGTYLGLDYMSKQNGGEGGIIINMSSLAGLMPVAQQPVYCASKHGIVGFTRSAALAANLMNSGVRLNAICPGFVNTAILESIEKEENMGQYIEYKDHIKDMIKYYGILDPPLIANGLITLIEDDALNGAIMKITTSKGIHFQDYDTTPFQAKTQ

SMILES	Potency	activity change, negative = inhibition
CC(=O)c1ccc(NC(=O)c2cnn3ccccc23)cc1	inconclusive [inhibitor, single point]	
Cc1cc(C)n2ncc(C(=O)NCCc3ccccc3)c2n1	inconclusive [inhibitor, partial curve]	
O=C(COC(=O)c1ccccc1NC(=O)c1ccco1)NC1CCCCC1	inconclusive [inhibitor, single point]	
COc1ccc(C2=CC(c3ccc(OC)c(OC)c3)NC(=S)N2)cc1 (configuration not stated)	inconclusive [inhibitor, partial curve]	
Cc1cccc(C)c1Nc1nnc(SCc2cc([N+](=O)[O-])cc3c2OCOC3)s1	active: 11.2 µM	
Cc1nc2ccccn2c1/C(O)=C1\C(=O)C(=O)N(CCN2CCOCC2)C1c1ccncc1 (configuration not stated)	inconclusive [inhibitor, partial curve]	
CCc1ccc2[nH]c(=O)c(CN(Cc3ccco3)S(=O)(=O)c3ccc4c(c3)OCCO4)cc2c1	inconclusive [inhibitor, partial curve]	
CO/N=C1\CN(c2nc3c(cc2F)c(=O)c(C(=O)O)cn3C2CC2)CC1CN (configuration not stated)		inactive: -25%
Cn1c(=N)c(S(=O)(=O)c2ccc(F)cc2)cc2c(=O)n3ccccc3nc21	inconclusive [inhibitor, partial curve]	
O=C(Nc1ccc(-c2cn3ccsc3n2)cc1)C1CCCC1	active: 14.1 µM	
Cc1cc(NS(=O)(=O)c2ccc(NC(=O)c3cc(-c4cccnc4)nc4ccc(Cl)cc34)cc2)no1	active: 14.1 µM	
CCN(CC)S(=O)(=O)c1cccc(-c2n[nH]c(=S)n2/N=C/c2ccc(C(=O)OC)cc2)c1	active: 6.31 µM	
Cc1c(O)c(CN2CCCC2)cc2c3c(c(=O)oc12)CCC3	inconclusive [inhibitor, partial curve]	
CCOc1ccccc1NC(=O)c1ccc(S(=O)(=O)N(C)C)cc1		inactive: -17.5%
Cc1cc(NC(=O)c2ccccc2F)n(-c2nc3ccccc3[nH]2)n1	inconclusive [inhibitor, single point]	
COC(=O)C1=C(C)NC2=C(C(=O)CC(C)(C)C2)C1c1cn(Cc2ccc(Br)cc2)nc1-c1ccccc1 (configuration not stated)	inconclusive [inhibitor, partial curve]	
CCSc1nc2c([nH]c3ccccc32)c(=O)n1C	inconclusive [inhibitor, partial curve, poor fit]	
CO/N=C/c1ccc(N2CCN(C(=O)c3ccc(Cl)cc3Cl)CC2)c([N+](=O)[O-])c1	inconclusive [inhibitor, partial curve]	
Cc1nn(-c2ccccc2)c2sc(C(=O)n3cccn3)cc12	inconclusive [inhibitor, partial curve]	
Cc1nnc(SCc2ccccc2F)n1NCc1cccs1	active: 31.6 µM	
Cc1oc2cc(O)cc(C)c2c(=O)c1-c1cnn(-c2ccccc2)c1	inconclusive [inhibitor, single point]	
COCc1nnc(NC(=O)c2cc(Cl)ccc2OC)s1	inconclusive [inhibitor, partial curve]	
COc1ccccc1NC(=O)c1sc2ncn(Cc3cccc(C)c3)c(=O)c2c1C	inconclusive [inhibitor, single point]	
O=C(Nc1cc(C(=O)N2CCCC2)ccc1N1CCCC1)c1ccccc1	active: 25.1 µM	

SMILES	Potency	activity change, negative = inhibition
CCn1c(C(=O)NCc2cccnc2)cc2sc(Cl)cc21	active: 15.8 µM	
NNC(=O)CN1C(c2ccccc2Br)=Nc2ccc(Br)cc2C1c1ccccc1 (configuration not stated)	inconclusive [inhibitor, single point]	
N#Cc1c(-c2cccs2)cc(C2CC2)nc1SCC(N)=O	inconclusive [inhibitor, partial curve]	
O=C(Oc1ccc(C(=S)N2CCOCC2)cc1Br)c1ccccc1F	active: 31.6 µM	
O=[N+]([O-])c1ccc(O)c(/C=N/Nc2ccc(Cl)nn2)c1		inactive: -29.8%
Nc1c(C(=O)Nc2ccccc2F)sc2nc(-c3ccco3)ccc12	inconclusive [inhibitor, partial curve]	
Cc1ccsc1C1Nc2ccccc2C(=O)N1O (configuration not stated)	active: 17.8 µM	
CCSc1nnc(-c2cnn(-c3ccccc3)c2-n2cccc2)n1C	inconclusive [inhibitor, partial curve]	
COC(=O)Cn1c(=NC(=O)c2nc3ccccc3s2)sc2cc(S(N)(=O)=O)ccc21	inconclusive [inhibitor, partial curve]	
Cc1ccc(/C=C/C(=O)c2ccc(C)cc2)cc1		inactive: -6.76%
CCc1c(C)c2cc(Cl)c(O)c(CN(CC)CC)c2oc1=O	inconclusive [inhibitor, partial curve]	
COC(=O)c1c(NC(=O)CN2CCC3(O)CCCCC3C2c2ccccc2OC)sc(C)c1C (configuration not stated)	inconclusive [inhibitor, single point]	
CC(=O)Nc1cc(N2C(=O)CCC2=O)ccc1Cl		inactive: 1.81%
CC(C)COc1ccc(-c2nn(-c3ccccc3)cc2C(=O)Nc2nccs2)cc1	inconclusive [inhibitor, partial curve]	
Fc1ccc(-c2n[nH]c(=S)n2/N=C/c2c[nH]c3ccccc23)cc1	active: 2.82 µM	
N#Cc1c(N2CCN(C(=O)c3ccccc3Cl)CC2)nc(-c2ccccc2)c2c1CCCC2	inconclusive [inhibitor, partial curve]	
Cc1cc(C)cc(-n2cnc3cc(C(=O)O)ccc32)c1	active: 15.8 µM	
CCOC(=O)C1CCN(c2nc(-c3ccccc3)nc3c2oc2ccccc23)CC1	inconclusive [inhibitor, single point]	
COc1ccc(NC(=O)Nc2cccc([N+](=O)[O-])c2)cc1Cl		inactive: -14.6%
CC(=O)N1CCC(=NNC(=O)c2cccs2)CC1		inactive: 0.204%
Cc1ccccc1-n1nnnc1SC1CCOC1=O (configuration not stated)		inactive: -11.5%
Cc1ccc(/C=N/n2c(-c3ccco3)n[nH]c2=S)s1	active: 12.6 µM	
CN(C)c1ccc(C2N3CC4(C)CN2CC(C)(C3)C4O)cc1 (configuration not stated)		inactive: -23.9%
Cc1nn(C)cc1/C=N/O		inactive: -3.05%

SMILES	Potency	activity change, negative = inhibition
COc1ccc(-c2nc3ccccc3o2)cc1NC(=O)c1ccc(Br)o1	inconclusive [inhibitor, partial curve]	
Nn1c(Cc2cccc3ccccc23)nnc1SCc1c(F)cccc1Cl	active: 22.4 µM	
CCN(CC)c1c([N+](=O)[O-])c(=O)sc2ccccc12	inconclusive [inhibitor, partial curve]	
N#Cc1cc(N)ccc1Sc1ccc(Cl)cc1	inconclusive [inhibitor, partial curve]	
Cc1ccc(-c2nnc(NCc3nc4ccccc4[nH]3)c3ccccc23)cc1S(=O)(=O)N1CCCCC1	inconclusive [inhibitor, partial curve]	
COc1ccc(CNc2ccccc2SC)cc1OC	inconclusive [inhibitor, single point]	
CCN(CC)c1ccc(C(=O)OCC(=O)Nc2sccc2C#N)cc1	inconclusive [inhibitor, partial curve]	
CSCC[C@H](Nc1ncnc2sc(C)c(C)c12)C(=O)O	inconclusive [inhibitor, partial curve, poor fit]	
O=C(Nc1ccc2c(c1)OCO2)c1cnn2c(C(F)(F)F)cc(-c3ccco3)nc12		inactive: -10.5%
O=C(CSc1ccccn1)Nc1nc2ccc(Br)cc2s1		inactive: -8.42%
Cc1cc(=O)oc2cc(OC(=O)CCN3C(=O)c4ccccc4C3=O)ccc12	inconclusive [inhibitor, full curve]	
COC(=O)c1cc(OC)c(OC)cc1NC(=O)CSc1nnnn1Cc1ccccc1	inconclusive [inhibitor, partial curve]	
Cc1cc(=O)n2[nH]c(N)c(N=Nc3ccccc3F)c2n1		inactive: -7.68%
CC(C)(C)c1ccc(C(=O)NC(=S)NCc2cccnc2)cc1	inconclusive [inhibitor, partial curve]	
O=S(=O)(Cc1ccccc1)c1cnc2ccccc2n1	active: 25.1 µM	
CCCn1c(SCC(=O)c2cc(OC)ccc2OC)nnc1-c1ccco1		inactive: -9.97%
CCOC(=O)c1c(NC(=S)Nc2cccc(C)c2)sc2c1CC(C)(C)SC2	inconclusive [inhibitor, partial curve, poor fit]	
Cc1ccc(NC2=C/C(=N/S(=O)(=O)c3cccs3)c3ccccc3C2=O)cc1		inactive: -2.89%
COc1ccc(-c2nnn(Cc3nn[nH]n3)n2)cc1OC	inconclusive [inhibitor, partial curve]	
CC(C)(Cl)C1Cc2cc3ccc(=O)oc3cc2O1 (configuration not stated)	inconclusive [inhibitor, partial curve]	
O=S1(=O)C=C(Oc2ccc3ccccc3c2)c2ccccc21		inactive: -24.8%
Cc1ccc(C(=O)c2no[n+]([O-])c2C(=O)c2ccc(C)cc2)cc1	active: 20 µM	
O=C(CSc1ncnc2c1oc1ccccc12)OCc1ccccc1	inconclusive [inhibitor, single point]	
c1ccc(Cn2c(SCc3nc4ccccc4s3)nnc2-c2ccco2)cc1	inconclusive [inhibitor, partial curve]	
